# Experimental data published in PubChem BioAssay AID1768 (National Center for Advancing Translational Sciences (NCATS), 2009).
# Screen size: about 270,000 compounds; about 620 (0.23%) were called active. Inconclusive means that the source gave no clear call. Such entries were picked first, then a sample of the others. The call rests on the fitted dose curve; in most records, active means well fitted inhibition curve with a large enough effect in the polarisation, with a control signal flat (not every such curve was filed as active); inconclusive means small, poorly fitted or top-dose-only effect, or effect the other way, or a change in a side signal; inactive means no such curve, though single readings can be large or run the other way; the % refers to the polarisation. A potency beside an inconclusive call is a rough fit, not a confirmed value. A note “side channel” means that the fit belongs to a control or component signal, not to the main read-out.
# Biological target: Menin (Homo sapiens) (UniProt O00255)
# Chain of UniProt O00255 (O00255 whole entry, looked up): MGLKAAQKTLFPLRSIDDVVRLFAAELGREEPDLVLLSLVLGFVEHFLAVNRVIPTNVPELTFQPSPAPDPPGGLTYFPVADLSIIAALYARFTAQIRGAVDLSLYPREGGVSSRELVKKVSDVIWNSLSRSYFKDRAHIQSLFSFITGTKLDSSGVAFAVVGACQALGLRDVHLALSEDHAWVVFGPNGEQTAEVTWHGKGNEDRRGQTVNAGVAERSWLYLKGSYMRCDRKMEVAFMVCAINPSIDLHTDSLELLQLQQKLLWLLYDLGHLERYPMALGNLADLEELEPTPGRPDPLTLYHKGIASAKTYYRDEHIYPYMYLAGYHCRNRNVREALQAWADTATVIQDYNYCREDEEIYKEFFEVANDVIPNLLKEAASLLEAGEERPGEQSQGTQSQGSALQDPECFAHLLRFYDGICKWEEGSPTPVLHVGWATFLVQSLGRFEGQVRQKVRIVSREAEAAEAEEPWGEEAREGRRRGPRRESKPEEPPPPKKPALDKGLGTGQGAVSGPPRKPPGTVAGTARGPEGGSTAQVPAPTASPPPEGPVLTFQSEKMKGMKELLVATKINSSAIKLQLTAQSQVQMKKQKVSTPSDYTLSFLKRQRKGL
# Test: qHTS Assay for Inhibitors Targeting the Menin-MLL Interaction in MLL Related Leukemias: Competition With Texas Red Labeled MLL-derived Mutant Peptide
# Details: fluorescence polarization; series mostly up to 61.6 µM
# Potency means the concentration at half of the fitted maximal effect; tags describe the fitted curve by direction and shape or compound fluorescence and quenching.
row,SMILES,Potency
1,Cc1cccc(N(C)S(=O)(=O)c2nnc(NC(=O)c3ccco3)s2)c1,"inconclusive: 28.2 µM [quencher, single point]"
2,CC(C(=O)NN=C(c1ccccc1)c1ccccc1)N1CCCC1 (stereo not drawn),"inconclusive: 31.6 µM [fluorescent, side channel, partial curve]"
3,Cc1ccc(C)c(C(=O)COC(=O)c2cccc(N3C(=O)c4c(C)nc5ccccc5c4C3=O)c2)c1,"inconclusive: 31.6 µM [quencher, side channel, partial curve]"
4,COc1ccc(CNCCC(c2ccccc2)c2ccc3c(c2)OCO3)cc1 (stereo not drawn),"inconclusive: 3.55 µM [fluorescent, side channel, full curve]"
5,N[C@H](Cc1ccc(O)cc1)C(=O)O,inactive
6,O=C(O)CC/C(=C\c1ccc(N2CCCC2)c([N+](=O)[O-])c1)c1nc2ccccc2s1,"inconclusive: 39.8 µM [quencher, side channel, single point]"
7,O=c1c2ccccc2c(/C=N/n2cnnc2)c(O)n1-c1ccccc1,"inconclusive: 31.6 µM [quencher, side channel, single point]"
8,O=C(CSCc1ccc(Cl)cc1)Nc1ccccc1O,"inconclusive: 20 µM [quencher, side channel, single point]"
9,C/C(=N\NC(=O)OC(C)(C)C)c1ccccc1Br,"inconclusive: 14.1 µM [fluorescent, side channel, partial curve]"
10,O=C(C1=NN[C@@H]2C(=O)N(c3cccc(C(F)(F)F)c3)C(=O)[C@H]12)C(c1ccccc1)c1ccccc1,"inconclusive: 28.2 µM [inhibitor, single point]"
11,COC(=O)c1c(NC(=O)Nc2ccc(Cl)cc2)sc(C)c1C,"inconclusive: 3.55 µM [quencher, side channel, full curve, poor fit]"
12,CSc1nnc(N2C(=O)C(O)=C(C(=O)c3ccco3)C2c2ccccc2)s1 (stereo not drawn),"inconclusive: 39.8 µM [quencher, side channel, single point]"
13,O=C(Cc1n[nH]c(=O)c2ccccc12)Nc1ccc(-c2nnc3n2CCCCC3)cc1,inactive
14,Cc1ccc2c(c1)N(CC(=O)NCC(C)c1ccccc1)C(=O)c1cccnc1O2 (stereo not drawn),"inconclusive: 39.8 µM [inhibitor, single point]"
15,COC(=O)CNc1nc(Cl)nc(Nc2ccc(C)cc2)n1,"inconclusive: 25.1 µM [fluorescent, side channel, single point]"
16,OCCCNc1cc(-c2ccccc2)nc2cc(-c3ccc(F)cc3)nn12,"inconclusive: 12.6 µM [quencher, side channel, partial curve]"
17,Cc1ccc(-n2nc(C)c3c2OC(N)=C(C#N)C3c2ccncc2)cc1 (stereo not drawn),"inconclusive: 39.8 µM [quencher, side channel, single point]"
18,Clc1ccc(Sc2cc(Cl)c(Cl)cc2Cl)cc1,inactive
19,COc1ccc(OC)c(NC(=O)c2cc(OC(C)=O)cc(C(=O)Nc3cc(OC)ccc3OC)c2)c1,"inconclusive: 31.6 µM [quencher, side channel, single point]"
20,O=[N+]([O-])c1ccc(-c2ccc(/C=N/Nc3nc(N4CCCCC4)nc(N4CCCCC4)n3)o2)cc1,"inconclusive: 3.98 µM [quencher, side channel, partial curve]"

row,SMILES,Potency
1,C/C(=N\NC(=O)c1ccccc1-n1cccc1)C1CC1,inactive
2,Cc1ccc(NC(=O)CO/N=C/c2ccccc2C)c(C)c1,"inconclusive: 28.2 µM [fluorescent, side channel, single point]"
3,CCOC(=O)c1c(NC(=O)CSc2nnc(-c3ccco3)o2)sc(C(C)=O)c1C,"inconclusive: 3.55 µM [fluorescent, side channel, single point]"
4,COCCCN1CC(=O)N2Cc3[nH]c4ccccc4c3C[C@H]2C1=O,"inconclusive: 4.47 µM [inhibitor, partial curve]"
5,COc1ccc2[nH]c(=O)c(CN(Cc3nnnn3Cc3ccco3)C3CCCCC3)cc2c1,"inconclusive: 31.6 µM [quencher, side channel, single point]"
6,COc1ccc(-c2csc(NC(=O)c3cc(C)on3)c2C#N)cc1OC,"inconclusive: 11.2 µM [inhibitor, partial curve]"
7,CCN(CC)CCCN(C(=O)c1cccs1)c1nc(-c2ccc(OC)cc2)cs1,inactive
8,Cc1ccc2nc(SCC(=O)c3ccc(Cl)s3)[nH]c2c1,"inconclusive: 31.6 µM [quencher, side channel, single point]"
9,O=C(CCSc1ccccc1Cl)Nc1cccc([N+](=O)[O-])c1,"inconclusive: 28.2 µM [quencher, side channel, partial curve]"
10,N#C/C(=C(/O)COC(=O)c1ccc(C#N)cc1)c1nc2ccccc2s1,"inconclusive: 39.8 µM [quencher, single point]"
11,O=C(Cc1sc(-c2ccccc2Cl)nc1-c1ccccc1)Nc1ccccc1,"inconclusive: 28.2 µM [inhibitor, single point]"
12,Fc1ccc(/C=N/NC2=Nc3cccc4cccc2c34)cc1,"inconclusive: 28.2 µM [quencher, side channel, partial curve]"
13,CCCCn1nc2cc(C(=O)NCCc3ccc(C)cc3)ccc2c1OCC,"inconclusive: 39.8 µM [fluorescent, side channel, single point]"
14,Cc1nc(COc2ccc(C(=O)Nc3ccccc3N3CCOCC3)cc2)cs1,"inconclusive: 17.8 µM [inhibitor, partial curve]"
15,Cc1ccc(C(=O)Cn2c3[n+](c4ccccc42)CC(O)CS3)cc1 (stereo not drawn),inactive
16,CCCOC(=O)c1ccc(NC(=O)/C=C/c2cccs2)cc1,"inconclusive: 22.4 µM [quencher, side channel, partial curve]"
17,Cc1ccc(-n2c(=O)cc(NCc3cccnc3)[nH]c2=O)cc1,"inconclusive: 39.8 µM [inhibitor, single point]"
18,FC(F)(F)c1cccc(Cc2noc(CN3C[C@@H]4CCC[C@H]3C4)n2)c1,"inconclusive: 10 µM [fluorescent, side channel, partial curve]"
19,CC(=O)Nc1ccc(S(=O)(=O)Oc2cccc(/C=C3\SC(N)=NC3=O)c2)cc1,"inconclusive: 8.91 µM [inhibitor, full curve]"
20,Fc1cccc(Cl)c1CSc1ccc(-c2ccco2)nn1,"inconclusive: 17.8 µM [quencher, side channel, partial curve]"

row,SMILES,Potency
1,O=C(NC(=S)Nc1ccc(Cl)cn1)c1cc([N+](=O)[O-])ccc1N1CCOCC1,"inconclusive: 12.6 µM [quencher, side channel, partial curve]"
2,CCOC(=O)CSc1nc2cc(C(=O)N3CCCC3)ccc2c(=O)n1Cc1ccccc1,"inconclusive: 0.631 µM [fluorescent, side channel, full curve]"
3,Cc1nnc(NC(=O)CSc2ccc(-c3ccco3)nn2)s1,inactive
4,Cc1ccc2nc(NC(=O)CN(C)S(=O)(=O)c3cccc4nsnc34)sc2c1,"inconclusive: 12.6 µM [inhibitor, partial curve]"
5,O=C(Nn1c(SCc2ccc(F)cc2)nc2ccsc2c1=O)c1ccccc1,"inconclusive: 28.2 µM [fluorescent, side channel, single point]"
6,CC(=O)N(Cc1c(C#N)c2ccccc2n1C)c1ccccc1,"inconclusive: 28.2 µM [inhibitor, partial curve, poor fit]"
7,C/C(=N/NS(=O)(=O)c1ccc(Br)cc1)c1ccc(NC(=O)c2ccc(C)o2)cc1,"inconclusive: 7.08 µM [quencher, side channel, partial curve]"
8,Brc1ccc(-c2ccc(/C=N/Nc3nc4ccccc4[nH]3)o2)cc1,"inconclusive: 7.94 µM [quencher, side channel, full curve]"
9,O=C(Nc1ccc2c(c1)oc1ccccc12)C1CC1,"inconclusive: 39.8 µM [inhibitor, single point]"
10,O=C(O)c1cccc(N2C(=O)/C(=C/c3ccc(SCc4ccc(Cl)cc4)o3)SC2=S)c1,"inconclusive: 39.8 µM [fluorescent, partial curve, poor fit]"
11,CCOCCCNC(=O)C1CCN(S(=O)(=O)c2cc(Br)cc3c2N(C(=O)CC)CC3)CC1,"inconclusive: 39.8 µM [inhibitor, single point]"
12,Cc1nn(Cc2ccccc2Cl)c(C)c1N,"inconclusive: 39.8 µM [inhibitor, single point]"
13,CC(C)(C)c1ccc(Cn2c(=N)n(CC(O)c3ccco3)c3ccccc32)cc1 (stereo not drawn),"inconclusive: 8.91 µM [fluorescent, side channel, full curve]"
14,Cc1cc(C)c(C(=O)COC(=O)c2ccc([N+](=O)[O-])o2)cc1C,"inconclusive: 3.98 µM [quencher, side channel, partial curve]"
15,Cc1ccc(-c2nc3ccccc3c(=O)n2O)cc1,inactive
16,O=C(Nc1ccc(S(=O)(=O)Nc2nccs2)cc1)c1cc(-c2ccccc2Cl)nc2ccccc12,"inconclusive: 5.01 µM [quencher, side channel, full curve]"
17,O=C1[C@@H]2Cc3c([nH]c4ccccc34)C(c3ccc([N+](=O)[O-])cc3)N2C(=O)CN1C1CC1 (stereo partly drawn),"inconclusive: 22.4 µM [quencher, side channel, partial curve]"
18,Cc1nn(Cc2ccccc2)c(Cl)c1/C=C/C(=O)OC(C(=O)NC(N)=O)C(C)C (stereo not drawn),"inconclusive: 31.6 µM [fluorescent, side channel, partial curve]"
